Experimental data reported in the supplement of paper PMC3334620.
In all, about 33,000 sequences were measured (“E-score (-0.5 to 0.5)”: median about -0.035, highest 2% from about 0.34 on). The list shows a part of the results.

Each sequence was assayed against T1, Mot3 (UniProt P54785) (assay: PBM E-score (8-mer binding enrichment) (E-score (-0.5 to 0.5)); higher = stronger / more preferred TF binding; most listed sequences are background and not binding sites). Conditions: protein concentration: 200 nM; construct: GST-full length.
T1 sequence: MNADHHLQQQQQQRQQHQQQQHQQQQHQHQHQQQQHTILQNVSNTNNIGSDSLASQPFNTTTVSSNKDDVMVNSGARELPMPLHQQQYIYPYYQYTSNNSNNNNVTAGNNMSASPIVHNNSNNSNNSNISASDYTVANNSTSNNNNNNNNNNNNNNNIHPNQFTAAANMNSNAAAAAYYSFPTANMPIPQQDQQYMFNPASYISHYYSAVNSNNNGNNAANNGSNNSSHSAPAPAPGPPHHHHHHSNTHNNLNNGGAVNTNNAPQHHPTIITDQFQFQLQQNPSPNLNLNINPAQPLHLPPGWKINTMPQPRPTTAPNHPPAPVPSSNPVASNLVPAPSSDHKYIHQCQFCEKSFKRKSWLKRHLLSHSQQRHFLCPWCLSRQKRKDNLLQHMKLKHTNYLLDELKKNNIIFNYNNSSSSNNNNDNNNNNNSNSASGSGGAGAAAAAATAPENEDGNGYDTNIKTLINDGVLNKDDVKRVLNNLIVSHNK
Method: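 Universal 'all 10-mer' protein binding microarrays (Agilent AMADID 015681) probed with GST-tagged S. cerevisiae TFs (full-length or DBD) made by in vitro transcription/translation (PURExpress), about 100-200 nM. Bound TF was detected with fluorescent anti-GST. Each ungapped 8-mer (which stands for itself and its reverse complement) is scored by the PBM enrichment score (E-score), a modified Wilcoxon-Mann-Whitney statistic from -0.5 to +0.5, computed with the Universal PBM Analysis Suite. Scale: above 0.35 generally sequence-specific binding.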

Row | Sequence | PBM E-score
1 | ACCTCAAG | -0.0329
2 | CATTGAAC | 0.124
3 | TAAAGTAA | 0.185
4 | AATGACAT | 0.158
5 | CCATTTTC | -0.0477
6 | AGTTATGC | -0.00809
7 | ACAGCACC | -0.294
8 | ACCGCCTA | -0.176
9 | ACCAAGCA | -0.0877
10 | ACAGCCGG | -0.0721
11 | CATATTAA | 0.151
12 | GGTTTGGA | 0.00084
13 | CGCATGTA | 0.356
14 | CGTACAAG | 0.183
15 | CTAATTCA | 0.0729
16 | AGTTATAA | 0.163
17 | ATGTCGTG | 0.226
18 | CAGTGAAA | -0.0605
19 | ATGTCTGA | -0.0191
20 | ACTGTTAC | -0.0175
21 | AAGCTCGA | -0.0643
22 | GGTCAGCA | -0.0605
23 | GCGTATAC | 0.234
24 | CCGCATAC | -0.159
25 | ATCCAGCA | -0.0996

Row | Sequence | PBM E-score
26 | CGTTGTAC | 0.167
27 | AGGAGAAC | -0.0599
28 | ATGGAGTA | -0.039
29 | CGGGTCCC | -0.226
30 | AATTCTGA | -0.0534
31 | GTCCTCAA | 0.00814
32 | TAAGCACA | 0.113
33 | GTGAGGGA | -0.264
34 | ATACACTC | 0.0887
35 | CTCAAGGC | 0.23
36 | CAACGTCG | 0.0622
37 | GACGCGGA | 0.0003
38 | ATGTGCTC | -0.0127
39 | ATCCCATG | 0.0443
40 | AGTTGGGG | -0.163
41 | CGCACATA | -0.146
42 | CCAGGCCG | -0.168
43 | AGAGAGCT | -0.194
44 | CAAAAGGA | 0.238
45 | GACGAACA | 0.00985
46 | ATTCAAGA | -0.0536
47 | CGCTAGTC | -0.413
48 | GGCAGAAA | 0.142
49 | CTCGTCTA | -0.168
50 | AAGTACAC | 0.24

Row | Sequence | PBM E-score
51 | AAGCAATA | 0.0951
52 | ATAGGCCC | -0.0679
53 | AACGGCTA | -0.0369
54 | GTCCTCAC | -0.278
55 | ACATTAAC | 0.253
56 | GTTTTTCA | 0.144
57 | CTCCTTAC | 0.076
58 | AGCGTCCT | -0.00078
59 | AGTTCCGC | -0.12
60 | ACGAGGAT | 0.0893
61 | ATCCAAAT | 0.0987
62 | TGACTCAA | 0.0651
63 | GAAAACCA | -0.00696
64 | ATCGCATA | 0.00354
65 | ATGGGATA | -0.0934
66 | GGTCCTTA | -0.152
67 | AGATTCCG | -0.193
68 | ACTGCTCA | -0.127
69 | CCCTCTTC | -0.183
70 | ATTCCCAA | -0.102
71 | GCGGGCCC | -0.288
72 | CAAAGGCC | -0.151
73 | ACGGGCCA | -0.261
74 | CGCCGGCA | -0.294
75 | CCGACCCA | -0.264

Row | Sequence | PBM E-score
76 | GACTGTGC | -0.0543
77 | CCCCTGCG | -0.0706
78 | ACGCTGGC | -0.185
79 | TTATGCAA | 0.12
80 | ATTGTACA | 0.269
81 | AAGTACGC | 0.154
82 | CTTGAGGC | 0.0947
83 | AACAGTAC | 0.143
84 | GTGACAGA | 0.0206
85 | ACTGAACG | -0.128
86 | ATGTCTGG | -0.0238
87 | AGAATTCT | -0.0542
88 | CCTGTCGC | -0.046
89 | AGGGAATG | -0.0864
90 | AGACTTTA | 0.0248
91 | AGCACAGA | 0.208
92 | GAAATCTA | 0.0868
93 | AGACAGTG | -0.00533
94 | GAATAGCA | -0.0702
95 | CCTTTTTC | 0.203
96 | GTAGTTTA | 0.213
97 | GAAACGAC | -0.00969
98 | AAAAAAAC | 0.0698
99 | ACCCCGTA | -0.162
100 | ACTTGAGG | -0.253

Row | Sequence | PBM E-score
101 | GCTGCACA | -0.00094
102 | ACCTAACA | 0.158
103 | CAAGGACG | -0.16
104 | CCGACTGA | -0.257
105 | CCGACGCC | 0.00363
106 | AATAGGGT | 0.0289
107 | CACACTCA | -0.0253
108 | CCCGGGCC | -0.252
109 | ATGTGGCG | -0.117
110 | GCCCTCGC | -0.261
111 | GTGTATAA | 0.343
112 | AGCCTCCC | -0.279
113 | ATACACTA | 0.124
114 | CAAATCAA | 0.322
115 | CCGCACAC | -0.282
116 | CAAGTATG | -0.0772
117 | TCGAGCGA | -0.0423
118 | ACACAAAG | 0.224
119 | ACAGTACA | 0.155
120 | AATTGTCC | 0.00548
121 | AGATCGGA | -0.029
122 | CCTGATTA | 0.247
123 | CACGCTCC | 0.074
124 | CAGATATA | 0.0491
125 | CGAATCCG | 0.14

Row | Sequence | PBM E-score
126 | AATCCTTA | 0.194
127 | CCTTTAAC | 0.288
128 | GAAGTCAA | -0.0355
129 | AGCCTTTC | 0.00311
130 | ATTCAACA | 0.204
131 | ATAGTCAT | -0.122
132 | AAAAGCCT | 0.126
133 | CCCCCCCG | -0.409
134 | ATTCGCGA | 0.0789
135 | CTGAATGA | 0.00529
136 | AAAGCCGT | 0.0462
137 | GCACGGGC | -0.113
138 | ATCTTTTA | 0.0822
139 | ACAGGGCC | -0.132
140 | ACGGTCGA | -0.224
141 | CGCATGCG | -0.0251
142 | AACCGTTG | -0.0773
143 | CGTGGACA | 0.0107
144 | AAAACTGC | -0.0209
145 | CTAGGAAC | 0.372
146 | CTACAGCC | 0.0807
147 | ATGATGTG | 0.048
148 | ATAGGTCC | -0.0381
149 | AACGTAAA | 0.236
150 | CGTCCGAA | -0.104

Row | Sequence | PBM E-score
151 | GTCTTTTA | 0.048
152 | AACGGCGC | -0.145
153 | CACGGCAG | 0.143
154 | AGATTTTC | 0.00802
155 | CGTCAGAC | -0.218
156 | GACGTCAA | 0.0781
157 | ACGCGTCT | 0.112
158 | CTGCGCTC | -0.242
159 | AGTGCCCG | 0.0343
160 | AACCCTAA | -0.0971
161 | ATAGAAGG | 0.0246
162 | AGCCCCTG | -0.0786
163 | GCAAGTGC | 0.0248
164 | ACTTATCT | -0.0445
165 | ACGGTTTA | 0.0145
166 | CCGGCACA | -0.362
167 | AGAGGCCG | -0.172
168 | ATATAAAA | 0.101
169 | CGATCGAG | -0.195
170 | GCATAACA | 0.271
171 | ATTGATGC | -0.0235
172 | CTCGTGAA | -0.115
173 | CCATCGGA | -0.346
174 | GCGGTTAA | -0.063
175 | GACCTAGC | -0.169

Row | Sequence | PBM E-score
176 | CACGAGAA | 0.103
177 | GTGAACGA | -0.0441
178 | GCTTTTAC | 0.15
179 | ATCTTGGA | -0.102
180 | ACTCTAGA | -0.144
181 | CAACGACG | 0.0644
182 | AGCGTGTG | 0.147
183 | ATAAACGA | 0.111
184 | CCCTAATC | -0.241
185 | ACGAAAGG | 0.153
186 | CATGCCCA | 0.0279
187 | GCGGCCGC | -0.354
188 | ACGAAGTC | -0.0333
189 | ACACTCAT | 0.125
190 | CAGACCGG | -0.14
191 | CTGAATCA | -0.0323
192 | GCATGGAC | -0.0715
193 | AGGCCAAC | 0.0556
194 | GTTGTTTA | 0.245
195 | CGAGACAC | -0.214
196 | CGCTTGAA | 0.127
197 | CAATCCCA | -0.226
198 | ATACATGG | 0.374
199 | AAACAATC | 0.0401
200 | ATCAGAGG | -0.218

Row | Sequence | PBM E-score
201 | ATTAATGA | 0.00942
202 | ACGTGAGG | -0.137
203 | ATCGTGTC | 0.247
204 | CAGAGAAA | 0.118
205 | AAGTCGGC | -0.189
206 | ACCAGTCG | 0.078
207 | AATTTACG | 0.203
208 | GAGATGCA | -0.207
209 | ATGCTGGG | -0.119
210 | AGGCGAAT | 0.15
211 | GGTACGAA | 0.0697
212 | GCTCACAC | -0.0638
213 | CGGTGTTC | -0.0692
214 | CTTTGATA | -0.0533
215 | AGGAGGAG | -0.164
216 | CAAAGCAG | 0.05
217 | AAAGCCCC | -0.237
218 | CCATGCTC | -0.179
219 | CAAAAGAA | 0.145
